The source of these data is ChEMBL document CHEMBL4888484, “Replenishing the malaria drug discovery pipeline: Screening and hit evaluation of the MMV Hit Generation Library 1 (HGL1) against asexual blood stage Plasmodium falciparum ,using a nano luciferase reporter read-out” (2022).

Hit rate of the full screen: of about 150,000 compounds, about 540 (0.36%) showed an effect of 50% or more. Some of the results follow.

This test relates to Plasmodium falciparum. Nature of the test: Primary screen in NF54 nanoGlo assay, in single point, at 2uM, 72h; a lower Z score goes with more inhibition. The conditions noted are these: timepoint 72 hour. In kind it is functional, Erythrocyte.
What is called % Inhibition is the relative decrease from the control value, in per cent. Take `O=C(NCc1ccco1)[C@@H]1COC2(CCN(C(=O)c3cccc(Cl)c3)CC2)N1C(=O)c1ccc(F)cc1`: the “% Inhibition” value was -2% and the Z score amounted to 0.32.

On to `CCCn1cc(CNC(=O)N2CCN(Cc3cc(F)cc(F)c3)CC2)cn1`, for which the “% Inhibition” value amounted to 11% and the Z score is reported as -2.15.

Take `CCC[C@H]1COCCN1C(=O)c1c[nH]c(=O)[nH]c1=O`: the “% Inhibition” value was -5% and the Z score turned out to be 0.87.

Turning to `O=C(NCCN1CCC(O)CC1)C(=O)Nc1ccc(C(F)(F)F)cc1`, the “% Inhibition” value is reported as -3% and the Z score stood at 0.42.

Consider `CCc1nc(NCc2ccccc2)c2onc(-c3ccc(C)cc3)c2n1`, for which the “% Inhibition” value is on record as -14% and the Z score amounted to 1.86.

Turning to `O=C(Cn1ncnn1)N1CCCC[C@H]1c1cccc(C(F)(F)F)c1`, the “% Inhibition” value is -15% and the Z score is reported as 2.13.

As for `CCC(CC)N1CC(C(=O)OC)O[C@H](C)C1` (stereo partly drawn), the “% Inhibition” value is recorded as -11% and the Z score was determined as 1.3.

Consider `COc1ccccc1-c1cc2nc(C)cc(N3CCN(c4ccccn4)CC3)n2n1`, for which the “% Inhibition” value was -6% and the Z score stood at 1.11.

As to `Cc1cc(NC(=O)c2cccc(N(C)C)c2)sn1`, the “% Inhibition” value is -3% and the Z score was determined as 0.47.

As for `CC(=Cc1ccccc1)CN1CCO[C@H](c2nc(C)n[nH]2)C1`, the “% Inhibition” value is on record as -10% and the Z score worked out at 1.27.

With `CN(Cc1ccccc1)S(=O)(=O)N(C)Cc1nncn1C`, the “% Inhibition” value was 4% and the Z score is -0.79.

As for `COc1ccc(CC(=O)N2CCOC3CCCCC32)cc1` (stereo not drawn), the “% Inhibition” value was -10% and the Z score was found to be 1.42.

Regarding `Cc1nnc2n1CCN([C@@H](C)C(=O)NC1(C#N)CCCCC1)C2`, the “% Inhibition” value was found to be 7% and the Z score is -1.1.

Regarding `NC(=O)CN1CCC(C(=O)N2CCC3(CC2)Cc2cccc(c2)Oc2cccc(c2)CCNC3=O)CC1`, the “% Inhibition” value was -4% and the Z score is on record as 0.76.

Take `CCOc1ccc2nc(C(=O)Nc3ccc(Br)cc3)sc2c1`: the “% Inhibition” value was determined as 8% and the Z score is recorded as -0.89.

Take `CC1CCC(N(C(=O)[C@H]2CC(=O)N(C3CC3)C2)C2CC2)CC1` (stereo partly drawn): the “% Inhibition” value is given as -1% and the Z score stood at 0.12.

In the case of `CC[C@H](C)NC(=O)CN1CCC(c2ocnc2C(=O)OC)CC1`, the “% Inhibition” value was -14% and the Z score was 2.12.

Turning to `C[C@@H](CNC(=O)Nc1cccnc1)N(C)Cc1ccccc1`, the “% Inhibition” value is -5% and the Z score stood at 0.69.

Regarding `Cc1n[nH]c(C2CN(C(C)c3ccncc3)CCO2)n1` (stereo not drawn), the “% Inhibition” value is given as -9% and the Z score came to 1.26.

Turning to `Cc1ccc(N2C(=O)C[C@H](N(C(=O)c3cccs3)c3ccc(C)cc3)C2=O)cc1`, the “% Inhibition” value is on record as -2% and the Z score was found to be 0.27.

With `Cc1nsc(N(C)[C@H](CO)CC(C)(C)C)n1`, the “% Inhibition” value is on record as -8% and the Z score is 1.29.

In the case of `CCC(CC)(CC(=O)O)NC(=O)c1ccc2c(c1)CCOC2`, the “% Inhibition” value is listed as -2% and the Z score came out at 0.13.

As for `O=S(=O)(Nc1ccccc1O)c1cc(-c2nnc(-c3ccccc3)o2)ccc1F`, the “% Inhibition” value turned out to be 5% and the Z score is reported as -0.77.

For the compound `CO[C@@H](C)c1noc(CN(C)C(=O)c2cc(C(C)C)n(C)n2)n1`, the “% Inhibition” value was found to be 2% and the Z score is given as -0.36.

In the case of `CCC(C)(C)NC(=O)[C@H]1C[C@H](O)CN1C(C)=O`, the “% Inhibition” value came to 5% and the Z score is recorded as -0.84.

Take `CN(C)c1ncccc1NC(=O)CCN1CCCS1(=O)=O`: the “% Inhibition” value is given as -16% and the Z score is reported as 1.73.

As to `CN(C[C@H]1CCCCO1)C(=O)Cc1ccsc1`, the “% Inhibition” value was -19% and the Z score was found to be 1.66.

Take `Cc1nnc(-c2cccc(NC(=O)C3CCN(C(=O)c4snnc4C)CC3)c2)s1`: the “% Inhibition” value is -15% and the Z score is 2.78.

Consider `Cc1nnc(-c2cncc(Br)c2)o1`, for which the “% Inhibition” value is given as -6% and the Z score turned out to be 0.86.

As for `C[C@H]1Cc2ccccc2N1C(=O)c1cc(O)nc2ccccc12`, the “% Inhibition” value is on record as -6% and the Z score is on record as 1.13.

Regarding `OCC[C@H]1CN(Cc2cccc3cccnc23)CCN1CC1CCCCC1`, the “% Inhibition” value was -4% and the Z score is reported as 0.42.

For `Cc1cc(S(=O)(=O)N2CC(Oc3nccs3)C2)ccc1F`, the “% Inhibition” value is given as 6% and the Z score is recorded as -1.01.

With `O=C(Cc1noc2ccccc12)NC1CCCCCC1`, the “% Inhibition” value is listed as -5% and the Z score was 0.99.

In the case of `Cc1c(C2(c3c(C)n(C)c4ccccc34)C(=O)N(C)c3ccccc32)c2ccccc2n1C`, the “% Inhibition” value is listed as -4% and the Z score is 0.58.

As for `C[C@@H](c1ccccc1)n1nccc1NC(=O)NCCCN1CCCC1=O`, the “% Inhibition” value is on record as -5% and the Z score is listed as 0.93.

As for `CCN1CCC[C@H](NCCc2nc(C)c(C)s2)C1`, the “% Inhibition” value is -15% and the Z score amounted to 1.45.

For the compound `O=C(c1ccc[n+]([O-])c1)N1Cc2ccccc2O[C@H](c2ccccc2)C1`, the “% Inhibition” value is -10% and the Z score is 1.76.

As to `COCCN1CC2(CCN(S(=O)(=O)c3cc(C)c(C)cc3C)CC2)[C@H]1c1ccncc1`, the “% Inhibition” value is -8% and the Z score was 1.4.

For the compound `CC(C)OCCN(C)c1nc2ccccn2c1C#N`, the “% Inhibition” value amounted to 1% and the Z score was -0.07.

Turning to `COCCNc1nc(-c2c(C)noc2C)cc(-c2c(C)nn(C)c2C)n1`, the “% Inhibition” value is -8% and the Z score is listed as 1.18.

Regarding `CNC(=O)c1ccnc(N2CC[C@@]3(CCCN(CCc4ccccc4)C3)C2)c1`, the “% Inhibition” value amounted to 12% and the Z score was -1.69.

Consider `O=C(NCCc1ccccc1F)c1ccccc1N1C(=O)[C@@H]2Cc3c([nH]c4ccccc34)C(c3ccccc3)N2C1=O` (stereo partly drawn), for which the “% Inhibition” value was -1% and the Z score stood at 0.09.

As for `O=C1NC(=O)[C@H](Cc2nc(-c3ccc(-c4ccccc4)cc3)no2)N1`, the “% Inhibition” value was -3% and the Z score worked out at 0.42.

Turning to `C1CCn2c(nnc2CC2CCCC2)C1`, the “% Inhibition” value is -5% and the Z score is recorded as 0.84.

For `CCC(=O)N(Cc1cccc(F)c1)Cc1cc(NC(=O)C2CCC2)ccc1N(C)C`, the “% Inhibition” value is given as -3% and the Z score is 0.4.

As for `Cc1nc2cc(-c3ncnn3CC(C)(C)O)ccc2s1`, the “% Inhibition” value is -5% and the Z score turned out to be 0.45.

For the compound `CC(=O)N1CCc2cc(Br)c(S(=O)(=O)N(C)Cc3ccco3)cc21`, the “% Inhibition” value came to 2% and the Z score is on record as -0.26.

Regarding `Cc1cc(-c2cc(C(=O)NC(C)C)ccn2)[nH]n1`, the “% Inhibition” value is reported as -6% and the Z score was 1.18.

For the compound `COc1ccc(CC(=O)N[C@H]2CC[C@H](Oc3nccnc3C#N)CC2)cc1`, the “% Inhibition” value came out at 14% and the Z score is given as -1.6.

As for `Cc1cc(-c2nc(C(=O)NCCN(C)CC(F)(F)F)co2)ccn1`, the “% Inhibition” value is on record as 2% and the Z score is listed as -0.26.

For the compound `CCc1nnc2n1C[C@@H](CNc1nc3ccccc3s1)CC2`, the “% Inhibition” value is reported as -2% and the Z score was 0.33.

Turning to `CN(Cc1nc(-c2ccco2)no1)[C@H]1CS(=O)(=O)c2ccc(Cl)cc21`, the “% Inhibition” value is listed as -5% and the Z score is 0.69.

As to `CNC(=O)C1(NC(=O)COc2ccc3ccccc3c2)CCCC1`, the “% Inhibition” value is given as -2% and the Z score is 0.26.

Take `Cc1nc(C#N)c(N)nc1NCC1(O)CCCCCC1`: the “% Inhibition” value is on record as 3% and the Z score is -0.42.
